Measured values reported in patent US20200138970A1 (Bayer, published 2020).
Residue numbers refer to the chain shown, from its start.

B1: ADC Example 208-6497 (antibody, human IgG1, lambda)
heavy: EVQLLESGGGLVQPGGSLRLSCAASGFTFRSYAMSWVRQAPGKGLEWVSSVSGSGGSALYADSVKGRFTISRDNSKNTLYLQMNSLRAEDTAVYYCTRLTGTSFDYWGQGTLVTVSS[left out - human IgG1 constant region]
light: QSVLTQPPSASGTPGQRVTISCSGSSSNIGSNPVNWYQQLPGTAPKLLIYGNSNRPSGVPDRFSGSKSGTSASLAISGLRSEDEADYYCQSFDSSLKKVFGGGTKLTVLGQPKAAPSVTLFPPSSEELQANKATLVCLISDFYPGAVTVAWKADSSPVKAGVETTTPSKQSNNKYAASSYLSLTPEQWKSHRSYSCQVTHEGSTVEKTVAPTECS
modifications: drug-linker from Intermediate F104 on Cys, sites not stated
B2: ADC Example 321-8382 (antibody, human IgG1, lambda)
heavy: B1 heavy with R30S, V51I, A58T, T97A, R98K
light: B1 light with G51S, S53N, N54Q, S77T, R80Q
modifications: drug-linker from Intermediate F321 on Cys, sites not stated
B3: ADC Example 325-8382 (antibody, human IgG1, lambda)
heavy: B1 heavy with R30S, V51I, A58T, T97A, R98K
light: B1 light with G51S, S53N, N54Q, S77T, R80Q
modifications: drug-linker from Intermediate F325 on Cys, sites not stated
B4: ADC Example 318-6497 (antibody, human IgG1, lambda)
heavy: B1 heavy
light: B1 light
modifications: drug-linker from Intermediate F318 on Cys, sites not stated
B5: ADC Example 317-8382 (antibody, human IgG1, lambda)
heavy: B1 heavy with R30S, V51I, A58T, T97A, R98K
light: B1 light with G51S, S53N, N54Q, S77T, R80Q
modifications: drug-linker from Intermediate F317 on Cys, sites not stated
B6: ADC Example 319-8382 (antibody, human IgG1, lambda)
heavy: B1 heavy with R30S, V51I, A58T, T97A, R98K
light: B1 light with G51S, S53N, N54Q, S77T, R80Q
modifications: drug-linker from Intermediate F319 on Cys, sites not stated
B7: ADC Example 320-8382 (antibody, human IgG1, lambda)
heavy: B1 heavy with R30S, V51I, A58T, T97A, R98K
light: B1 light with G51S, S53N, N54Q, S77T, R80Q
modifications: drug-linker from Intermediate F320 on Cys, sites not stated
B8: ADC Example 323-8382 (antibody, human IgG1, lambda)
heavy: B1 heavy with R30S, V51I, A58T, T97A, R98K
light: B1 light with G51S, S53N, N54Q, S77T, R80Q
modifications: drug-linker from Intermediate F323 on Cys, sites not stated
B9: ADC Example 317-6497 (antibody, human IgG1, lambda)
heavy: B1 heavy
light: B1 light
modifications: drug-linker from Intermediate F317 on Cys, sites not stated
B10: TPP-8382 (antibody, human IgG1, lambda)
heavy: B1 heavy with R30S, V51I, A58T, T97A, R98K
light: B1 light with G51S, S53N, N54Q, S77T, R80Q
B11: ADC Example 326-8382 (antibody, human IgG1, lambda)
heavy: B1 heavy with R30S, V51I, A58T, T97A, R98K
light: B1 light with G51S, S53N, N54Q, S77T, R80Q
modifications: drug-linker from Intermediate F326 on Cys, sites not stated
B12: TPP-7611 (antibody, human IgG1, lambda)
heavy: EVQLLESGGGLVQPGGSLRLSCAASGFTFRSYAMSWVRQAPGKGLEWVSSVSGSGGSALYADSVKGRFTISRDNSKNTLYLQMNSLRAEDTAVYYCTRLTGTSFDYWGQGTLVTVSS[left out - human IgG1 constant region with changes]
light: B1 light
B13: TPP-8322 (antibody, human IgG1, lambda)
heavy: EVQLLESGGGLVQPGGSLRLSCAASGFTFSSYGMHWVRQAPGKGLEWVSAISGSGGSTYYADSVKGRFTISRDNSKNTLYLQMNSLRAEDTAVYYCARGYYYYGMDVWGQGTLVTVSS[left out - human IgG1 constant region]
light: QSVLTQPPSASGTPGQRVTISCSGGSSNIGSNPVNWYQQLPGTAPKLLIYGNSKRPSGVPDRFSGSKSGTSASLAISGLRSEDEADYYCQSYDSSLSGWVFGGGTKLTVLGQPKAAPSVTLFPPSSEELQANKATLVCLISDFYPGAVTVAWKADSSPVKAGVETTTPSKQSNNKYAASSYLSLTPEQWKSHRSYSCQVTHEGSTVEKTVAPTECS
B14: TPP-8748 (antibody, human IgG1, lambda)
heavy: B13 heavy
light: B13 light with S53N
B15: TPP-8750 (antibody, human IgG1, lambda)
heavy: EVQLLESGGGLVQPGGSLRLSCAASGFTFSSYGMHWVRQAPGKGLEWVSAISGSGGSTYYADSVKGRFTISRDNSKNTLYLQMNSLRAEDTAVYYCARGYYYYGMDVWGQGTLVTVSS[left out - human IgG1 constant region with changes]
light: B13 light with S53N

Key:
[1] = target: T1, human B7H3 on cancer cell lines (human, UniProt Q5ZPR3 29-534); assay: cell-based or functional assay
T1 sequence (looked up): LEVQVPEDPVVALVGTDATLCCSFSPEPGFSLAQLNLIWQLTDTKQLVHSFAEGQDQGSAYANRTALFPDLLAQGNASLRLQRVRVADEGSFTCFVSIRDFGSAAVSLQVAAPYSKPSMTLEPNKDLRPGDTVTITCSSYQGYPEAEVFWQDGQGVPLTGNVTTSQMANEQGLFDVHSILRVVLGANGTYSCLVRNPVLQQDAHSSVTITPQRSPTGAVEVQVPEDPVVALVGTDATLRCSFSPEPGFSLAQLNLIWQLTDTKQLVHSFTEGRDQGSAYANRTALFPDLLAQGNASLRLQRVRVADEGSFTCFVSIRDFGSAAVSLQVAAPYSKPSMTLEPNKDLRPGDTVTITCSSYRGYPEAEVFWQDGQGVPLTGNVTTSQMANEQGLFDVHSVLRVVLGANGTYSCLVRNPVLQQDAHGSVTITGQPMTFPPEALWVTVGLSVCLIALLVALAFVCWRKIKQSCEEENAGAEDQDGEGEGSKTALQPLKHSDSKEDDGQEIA

[2] = target: T1, human B7H3 on cancer cell lines; assay: cell-based or functional assay; remark: listed apart in the source
[3] = target: T1, human B7H3 on cancer cell lines; assay: flow cytometry on A498 cells, dose response from 10 ug/mL (1:5 dilution), FITC secondary antibody
Procedure: (§1) A dose response curve (1:5 dilution) was generated. Following incubation, 200 μL of ice-cold FACS buffer were pipetted in and the cell suspension was centrifuged at 4° C., 400 g for 4 min. The cell pellet was washed with 300 μL of ice-cold FACS buffer prior to resuspending the pellet obtained in 100 μL of FACS buffer and again incubating for 30 min on ice with secondary antibody (monoclonal anti-kappa light chains FITC antibody, Sigma, No. SAB4700605) in a 1:10 dilution. Subsequently, the cells were washed with ice-cold FACS buffer and adjusted to a cell concentration of 0.5×10⁶ cells/mL before carrying out the flow cytometry using a Guava flow cytometer (Millipore). Propidium iodide (final concentration 1 μg/mL) was used for the live staining. With the aid of the background-corrected geometric mean fluorescence values, the IC50 value of the antibody to be investigated was determined.

[4] = target: T1, human B7H3 on cancer cell lines; assay: flow cytometry on U87 MG cells, dose response from 10 ug/mL (1:5 dilution), FITC secondary antibody
Procedure: as §1

[5] = target: T1, human B7H3 on cancer cell lines; assay: flow cytometry on U251 MG cells, dose response from 10 ug/mL (1:5 dilution), FITC secondary antibody
Procedure: as §1

| Binder | U251 CTG (IC50 M) [2] [nM] | EC50 [3] [nM] | further results |
| --- | --- | --- | --- |
| B1 | 0.0768 |  | MCF-7 CTG (IC50 M) [1]: 0.069 nM |
| B2 | 3.9 |  |  |
| B3 | 0.0644 |  |  |
| B4 | 47.7 |  |  |
| B5 | 18.1 |  | NCI-H292 CTG (IC50 M) [2]: 220 nM |
| B6 | 1.44 |  |  |
| B7 | 34.6 |  |  |
| B8 | 0.802 |  | NCI-H292 CTG (IC50 M) [2]: 95.5 nM |
| B9 | 14.2 |  | NCI-H292 CTG (IC50 M) [2]: 199 nM |
| B10 |  | 1.03 | EC50 [4]: 2.15 nM; EC50 [5]: 1.42 nM |
| B11 | 6.66 |  |  |
| B12 |  | 0.599 |  |
| B13 |  | 1.02 | EC50 [4]: 0.887 nM |
| B14 |  | 1.67 | EC50 [5]: 0.783 nM |
| B15 |  | 0.855 | EC50 [5]: 0.707 nM |
